Reference: the supplement of paper PMC3334620
Over roughly 33,000 sequences, “E-score (-0.5 to 0.5)” has its median near -0.016; the highest 2% begin near 0.32. Some of the results follow.

Biological target: T1, Stp1 (UniProt B3LFK1)
T1 sequence: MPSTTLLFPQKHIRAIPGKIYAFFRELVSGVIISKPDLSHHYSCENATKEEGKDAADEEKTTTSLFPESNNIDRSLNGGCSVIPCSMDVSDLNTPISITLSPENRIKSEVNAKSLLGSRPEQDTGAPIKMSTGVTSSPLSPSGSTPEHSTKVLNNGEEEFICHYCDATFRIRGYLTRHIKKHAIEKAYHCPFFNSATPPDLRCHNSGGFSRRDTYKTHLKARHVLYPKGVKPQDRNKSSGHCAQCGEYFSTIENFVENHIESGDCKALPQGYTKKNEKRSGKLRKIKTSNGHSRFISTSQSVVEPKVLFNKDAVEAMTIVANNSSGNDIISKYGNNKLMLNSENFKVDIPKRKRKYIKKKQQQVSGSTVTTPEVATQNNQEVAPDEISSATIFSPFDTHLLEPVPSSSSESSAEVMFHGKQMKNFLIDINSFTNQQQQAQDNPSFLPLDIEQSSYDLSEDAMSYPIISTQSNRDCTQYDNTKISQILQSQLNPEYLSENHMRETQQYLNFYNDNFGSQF
Experiment: PBM E-score (8-mer binding enrichment) (E-score (-0.5 to 0.5)); higher = stronger / more preferred TF binding; most listed sequences are background and not binding sites
Details: protein concentration: 200 nM; construct: GST-full length
Summary of the method: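 Universal all-10-mer Agilent arrays, double-stranded by primer extension on fresh or once-stripped slides, were probed with about 100-200 nM GST-tagged yeast transcription factors made by PURExpress. Fluorescent anti-GST detected bound protein, and masliner normalised the scans. E-scores from the Universal PBM Analysis Suite were given to each ungapped eight-base word pooled with its reverse complement.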

Sequence	PBM E-score
AAACGTCC	-0.0965
GTGTTCGA	0.0404
CGTTTTCA	0.241
CGTCTACC	-0.0252
GCGGCTAC	0.305
AACGTACG	0.0691
ACGTGAAT	0.0158
ACTGCCTG	0.0249
CGCTCACG	0.0682
ACGATGCG	-0.0608
AAGTAGAT	0.0197
GGTCCAGA	-0.0942
CGTGAATC	0.0226
CCAGTACA	-0.202
AATTGGCA	0.0379
AGGGGTTC	-0.33
ATCTTGAC	0.0119
GAACGGTA	0.0439
GTTCCGCA	0.148
AGGTGGAC	-0.203
AAAAGCCG	0.326
AAATTAGT	0.208
ACGCAGCC	0.0204
ACGTAGTC	-0.204
CCCGCCGG	-0.213

Sequence	PBM E-score
CAATTAAC	0.147
GAGGCAGA	-0.118
AATCAAAA	0.151
CCGCGCAC	0.299
GACCGGCC	-0.184
AGCCGTAT	0.435
ATTTTGCA	0.109
CCAGTGCC	0.179
GCCGGCGA	-0.00476
CGGGAAAA	-0.0802
CCTATAAA	-0.0378
CTGTTGTA	0.0828
AAAGAACA	-0.0165
TAACTTCA	0.0367
CAGATTAG	-0.192
AGCCATGA	-0.107
AACATTTA	-0.0282
GGGAGCCC	-0.335
GAGTGCAC	-0.0043
AATTTTCC	0.0625
AGTGAAGA	-0.041
AGAGATAT	-0.0244
AGCGGAAG	-0.102
GACAACAA	0.0779
ACTTATCA	-0.0319

Sequence	PBM E-score
ATAAGGGG	-0.181
TCTATCCA	-0.0202
TAGACACA	-0.101
AGTTGTCA	0.138
ACTTCCTG	-0.0515
CGATGCAG	-0.151
GAATCAAA	-0.00295
ATACTTAC	0.0388
GCCTCAAC	-0.111
TAATGCCA	0.267
CAGAGGGA	-0.168
AGTCGTTG	-0.261
ATACGCGC	0.151
CGGAACAC	0.155
ATGTCGCA	0.0188
GCGATATA	0.0834
AAGAAGAA	-0.0157
AGCTATTG	-0.0886
CAGGGGGG	-0.469
AGGTGTTC	-0.198
CCTACCGC	-0.0804
GCGGCGGA	0.358
CCGTCCCG	0.11
ATGACTGG	-0.308
GAGCTATC	-0.125

Sequence	PBM E-score
CCTTATGC	0.243
CTAGGAAA	-0.15
TCTTACCA	0.00503
TGCATTAA	0.199
AGGGACGA	-0.0417
CAAGTAGA	-0.0593
CCGGCAAC	0.0817
AAAATGGC	0.223
GTCCCTGA	-0.224
AGGTGGGG	-0.119
CGTCACCC	-0.12
CATAGCGA	0.0324
CACTTTCG	-0.0438
CACAGTTC	-0.033
GTCCAGAA	-0.0459
GAGATGGC	0.173
GTAGACTA	-0.141
ATATAGAA	0.0896
CTCAACTA	0.01
AGACAGAC	0.234
AGGGTCAG	-0.283
AGCCTGGA	-0.227
AGGGCTAG	-0.207
ACTATCCT	-0.194
AATCCCTA	0.0208

Sequence	PBM E-score
AAAGTCCA	-0.153
GAACGAAC	0.125
CGGGCTAA	-0.0457
ACCCCGAC	-0.295
TAATAGAA	0.137
AGTCGAGG	-0.242
CCTTGGGA	-0.0477
ACTTACCA	0.0513
TATCGCGA	0.0696
ACCAACTG	-0.247
AGATCGTC	-0.3
AGCCGTGG	0.334
CTCTGGTA	-0.177
ACAAGGTG	0.123
GACGAGGA	-0.0599
AGAAGCAG	-0.159
CATAGTGG	-0.0706
GGCGATAA	0.257
CACATCCC	-0.158
ATGATGAA	0.157
GACATTAC	0.0386
AGGCCGAA	-0.287
ACTGAGGA	-0.0836
AAGGGATT	-0.127
ACCCAGCG	-0.148

Sequence	PBM E-score
ACCACTAT	-0.127
AAAGAGGT	-0.0198
CCATTTAC	0.0994
ATTTAGCC	0.188
CACCGTCG	-0.114
TGCATGAA	0.0576
CCACTAAC	-0.0809
ATTTACGG	0.277
GATACAAC	0.0945
CTTGCATA	-0.0277
AGCAGATA	-0.0603
ATTTTGAA	0.277
GACTCAAC	0.15
CGTGGGAA	0.0706
GTATTAAC	0.0684
ACTTTACG	0.0861
AAAGTTCA	0.0106
TGCCAAAA	0.0739
GATAGAGC	0.161
AAAGTCCC	-0.212
CAAAGCAC	-0.0968
CTGTCTTC	-0.0807
ACTTCGGG	-0.114
GGGGATCA	-0.201
CGGCACGC	0.437

Sequence	PBM E-score
ATATGGAT	0.0941
ACCTTGCT	-0.158
ATCCACTG	-0.203
ACAGCTAG	-0.0366
TAGCGGAA	-0.0289
GCCGAACA	0.114
CCAACTAG	-0.0642
TTCAACAA	0.167
TGCTGTAA	-0.00878
AACCTGAA	-0.217
CATGGCAA	0.146
ACACAGGG	0.0528
CCAATTGC	0.014
GGGCTTGA	-0.172
AAGTAGAC	-0.0374
CCCGAATA	0.0793
AAATTATT	0.156
AATATGAG	0.0299
ATCTTCAA	0.114
AAGGAATG	0.0751
CGTACAGA	0.132
GACGAATA	0.0941
